Reference: PubChem BioAssay AID1508623 (National Center for Advancing Translational Sciences (NCATS), 2021)
The whole screen tested about 48,000 compounds, of which about 450 (0.94%) were called active. The shares of active, inactive and inconclusive entries below differ from those in the screen. The call rests on the fitted dose curve; in most records, active means well fitted inhibition curve with a large enough effect; inconclusive means small, poorly fitted or top-dose-only effect; inactive means no such curve, though single readings can be large or run the other way. A potency beside an inconclusive call is a rough fit, not a confirmed value.

Assay: Primary qHTS for Identification of Small Molecule Inhibitors of Huntingtin Promoter Activity; further: nearly all actives have a fitted effect of over 50% in size
Conditions: HEK293 HTT promoter firefly luciferase reporter (activity 0% = vehicle and -100% = no light), 24 h; activity change, negative = inhibition: at 57.5 µM (top of the series)
Procedure, shortened: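 Quantitative HTS used concentration series of up to 57.5 uM final on HEK293 luciferase reporter cells, 24 h at 37 degrees C. Readout was Dual-Glo firefly luminescence.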
Potency means the concentration at half of the fitted maximal effect; tags describe the fitted curve by direction and shape.

Potency, inconclusive:
Cc1ccc(NC(=O)C2CCN(S(=O)(=O)c3c(C)noc3/C=C/c3ccco3)CC2)cc1C 14.1 µM [inhibitor, partial curve, poor fit]
Cc1ccc(S(=O)(=O)c2cn(C)c3cc(N4CCCC(C)C4)c(F)cc3c2=O)c(C)c1 (stereo not drawn) 39.8 µM [inhibitor, single point]
Cc1ccc(-n2ncc3c(N4CCC(Cc5ccccc5)CC4)ncnc32)cc1 35.5 µM [inhibitor, partial curve, poor fit]
CCc1ccc(C(=O)c2cn(CC(=O)Nc3ccc(C)c(C)c3)c3ccccc3c2=O)cc1 25.1 µM [inhibitor, partial curve]
N#Cc1ccc(CSc2nc3c(c(=O)[nH]2)CCCC3)cc1 7.94 µM [inhibitor, partial curve, poor fit]
CC(C)Sc1ncc(Cl)c(C(=O)Nc2ccc(S(=O)(=O)N(C)c3ccccc3)cc2)n1 31.6 µM [inhibitor, partial curve, poor fit]
Cc1cc(C)cc(NS(=O)(=O)c2ccc3[nH]cc(C(=O)NCc4ccccc4Cl)c(=O)c3c2)c1 39.8 µM [inhibitor, single point]
CC(=O)Nc1nc(C)c(-c2ccc(Cl)c(S(=O)(=O)NCCO)c2)s1 3.06 µM [inhibitor, full curve]
CCOc1ccc(C(=O)N2CCC(c3noc(-c4ccc(S(=O)(=O)N5CCCC5)cc4)n3)CC2)cc1 14.1 µM [inhibitor, partial curve]
CCc1c(-c2ccccc2)nc2ccccc2c1C(=O)NCc1ccc(C)cc1 39.8 µM [inhibitor, single point]
COc1ccc(-c2nnc(C3CCN(S(=O)(=O)c4ccc(C)c(C)c4)CC3)o2)cc1 28.2 µM [inhibitor, partial curve, poor fit]
CCOC(=O)c1ccc(NC(=O)c2ccc(=O)n(Cc3cccc(C)c3)c2)cc1 25.1 µM [inhibitor, partial curve, poor fit]
O=C1CN(C(=O)c2ccc(S(=O)(=O)N3CCCC3)cc2)C(c2ccccc2)c2cc(Br)ccc2N1 (stereo not drawn) 31.6 µM [inhibitor, single point]
Cc1ccc(NC(=O)CN2CCSc3ccc(S(=O)(=O)N4CCCC4)cc32)cc1C 35.5 µM [inhibitor, partial curve, poor fit]
COc1cc(OC)c(NS(=O)(=O)c2cc(-c3cnc(C4CC4)o3)ccc2C)cc1Cl 39.8 µM [inhibitor, single point]
CCn1c(C(=O)N2CCCC(C(=O)N3CCN(c4cc(C)ccc4C)CC3)C2)cc2sccc21 (stereo not drawn) 12.6 µM [inhibitor, partial curve]
COc1ccc(NC(=O)CSc2nc3nc(C)c(Cc4ccccc4Cl)c(C)n3n2)cc1OC 39.8 µM [inhibitor, single point]
Cc1ccccc1CCNC(=O)c1cc2cc(S(=O)(=O)N3CCCCC3)ccc2n1C 10 µM [inhibitor, partial curve, poor fit]
COc1ccc(Cl)cc1NC(=O)CCCN1C(=O)C(c2ccccc2)Oc2cccnc21 (stereo not drawn) 35.5 µM [inhibitor, single point]
COc1cc2c(cc1OC)C(COc1cc(C)cc(C)c1)N(C(=O)COc1ccccc1)CC2 (stereo not drawn) 31.6 µM [inhibitor, single point]
N#Cc1cc(NC(=O)Nc2nnc(-c3ccncc3)s2)ccc1-c1cn[nH]c1 38.5 µM [inhibitor, single point]
CCN(c1cccc(C)c1)S(=O)(=O)c1nnc(NC(=O)c2ccccc2Cl)s1 39.8 µM [inhibitor, single point]
COC(=O)c1c(NC(=O)CS(=O)(=O)c2ccc(C)cc2)sc2c1CCCC2 10 µM [inhibitor, partial curve]
O=C(Nc1cccc(Cl)c1)c1ccc(F)c(S(=O)(=O)N2CCC3(CC2)OCCO3)c1 20 µM [inhibitor, partial curve, poor fit]
CCC(C)NC(=O)CSc1nc2n[nH]c(C)c2c(=N)n1-c1ccc(C)c(Cl)c1 (stereo not drawn) 28.2 µM [inhibitor, partial curve, poor fit]
O=C(Nc1nnc(S(=O)(=O)N2CCCc3ccccc32)s1)c1ccccc1 28.2 µM [inhibitor, single point]
CCc1ccccc1NC(=O)c1cc(S(=O)(=O)N2CCCc3ccccc32)ccc1F 22.4 µM [inhibitor, partial curve, poor fit]
CCOc1ccc(N(C)C(CNS(=O)(=O)c2ccccc2)c2ccccc2)cc1 (stereo not drawn) 22.4 µM [inhibitor, single point]
Nc1ccc2cc3ccc(N)cc3nc2c1 39.8 µM [inhibitor, single point]
COc1ccc(CCNC(=O)c2ccc3c(c2)N(Cc2ccc(F)cc2)CCS3)cc1OC 20 µM [inhibitor, partial curve, poor fit]
Cc1nc(-c2ccc(S(=O)(=O)Nc3ccc(C)c(N(C)C)c3)cc2)co1 14.1 µM [inhibitor, partial curve, poor fit]
COc1ccccc1-n1c(-c2ccc(C)cc2)cn2c3c(=O)n(C)c(=O)n(C)c3nc12 39.8 µM [inhibitor, single point]
CCN(CCCNC(=O)c1cc(Nc2ccccc2OC)nc2ccccc12)c1cccc(C)c1 22.4 µM [inhibitor, partial curve, poor fit]
O=S(=O)(NCC(Nc1ccc(Cl)cc1)c1ccccc1)c1ccccc1 (stereo not drawn) 39.8 µM [inhibitor, partial curve, poor fit]
CCOc1ccc(NC(=O)c2cc(S(=O)(=O)N3CCOCC3)ccc2F)cc1 35.5 µM [inhibitor, partial curve, poor fit]
CCc1c(C)sc2c1CCN(C(=O)Nc1ccc(F)c(Cl)c1)C2c1ccc(F)cc1 (stereo not drawn) 35.5 µM [inhibitor, single point]
O=C(Nc1ccccc1)C1CCN(S(=O)(=O)c2ccc3[nH]c4c(c3c2)CCCCC4)CC1 35.5 µM [inhibitor, single point]
O=C(Nc1ccc(Cl)cc1)N1CCN(c2ccc3nnc(-c4ccccc4)n3n2)CC1 39.8 µM [inhibitor, partial curve, poor fit]
CCOc1ccc(NC(=O)c2cc3c(=O)n(Cc4cccs4)ccc3nc2C)cc1 20 µM [inhibitor, partial curve, poor fit]
COc1ccccc1N(CC(=O)NCCSCc1cccc(Cl)c1)S(C)(=O)=O 28.2 µM [inhibitor, single point]
Cc1cc(C)cc(NC(=O)CSc2nnc(-c3cc4occc4n3C)n2-c2ccccc2C)c1 31.6 µM [inhibitor, single point]
COC(=O)c1ccc(OC)c(CN2C(=O)N(c3ccc(C(C)=O)cc3)S(=O)(=O)c3ccccc32)c1 31.6 µM [inhibitor, single point]
Cc1ccc(CNCc2c(C(=O)O)n(Cc3ccc(C)cc3)c3cc(C)ccc23)cc1 28.2 µM [inhibitor, single point]
CCOC(=O)c1cc(-c2ccc(F)cc2)n(CCC(=O)NCCc2ccc(C)cc2)c1C 20 µM [inhibitor, partial curve, poor fit]
Cc1ccc(CN(Cc2ccco2)C(=O)COc2ccc(Cl)cc2)o1 39.8 µM [inhibitor, single point]
CCc1ccccc1NS(=O)(=O)c1ccc(NC(=O)N2CCCC2)cc1 39.8 µM [inhibitor, single point]
CC(=O)c1ccc(NC(=O)c2ccc(-c3nc(CSc4ccccc4)c(C)o3)cc2)cc1 12.6 µM [inhibitor, partial curve]
NS(=O)(=O)c1cccc2c1C(=O)c1cccc(O)c1C2=O 34.3 µM [inhibitor, single point]
Cc1ccc(N2CCN(S(=O)(=O)c3ccc(F)c(C(=O)Nc4ccc(Cl)cc4Cl)c3)CC2C)cc1 (stereo not drawn) 2 µM [inhibitor, partial curve, poor fit]

Activity change, negative = inhibition, inactive:
O=C(NCC1CCCO1)c1c[nH]c2ccc(S(=O)(=O)Nc3cccc(C(F)(F)F)c3)cc2c1=O (stereo not drawn) -7.86%
Cc1ccc(OCCn2nnc3sc4c(c3c2=O)CCC(C)C4)cc1 (stereo not drawn) 6.31%
COC(=O)c1cc(NC(=O)Cn2nc(-c3ccc(C)c(C)c3)ccc2=O)cc(C(=O)OC)c1 -8.52%
COc1ccc(CCNC(=O)CCc2c(C)c3cc4c(C)coc4c(C)c3oc2=O)cc1OC -11.7%
Cc1ccc2nc(CNC(=O)c3ccccc3)[nH]c2c1 0%
COC(=O)c1ccc(NC(=O)CN2C(=O)c3cccc4cccc2c34)cc1 4.11%
COc1ccc(-c2noc(C3CC(=O)N(c4ccccc4)C3)n2)c(OC)c1 (stereo not drawn) -1.16%
CN(C)C(=O)Nc1ccc(Cl)c(Cl)c1 4.52%
CC(NC(CCc1ccccc1)C(=O)O)C(=O)N1C(=O)N(C)CC1C(=O)O (stereo not drawn) 9.3%
